Measurements reported in publication PMC4041426, “Structural basis for binding the TREX2 complex to nuclear pores, GAL1 localisation and mRNA export” (Nucleic Acids Research, 2014).
Results are given in words; binding and its absence hold for the method and conditions named. For part of these data: In cells and extracts the contact can be indirect. Some binding calls cover weakened binding; strength is not graded here. For part of these data: Where a sequence is shown, tags or fusion partners need not be part of it.

Chains of the proteins cited; added tags and fusions are not shown. Residues count along the entry.
UniProt P20676, residues 191-385: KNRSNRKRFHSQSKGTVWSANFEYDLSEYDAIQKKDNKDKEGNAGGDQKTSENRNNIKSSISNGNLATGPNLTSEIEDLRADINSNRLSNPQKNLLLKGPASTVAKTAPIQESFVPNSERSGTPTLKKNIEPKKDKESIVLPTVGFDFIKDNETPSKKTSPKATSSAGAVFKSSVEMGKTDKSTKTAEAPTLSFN

T1: GST-Sac3^753–805 wild-type (WT) (S. cerevisiae) (UniProt P46674)
T1 sequence: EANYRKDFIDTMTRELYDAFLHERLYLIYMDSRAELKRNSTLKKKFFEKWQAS

T2: Sac3^723–805 (wild-type) (S. cerevisiae) (UniProt P46674)
T2 sequence: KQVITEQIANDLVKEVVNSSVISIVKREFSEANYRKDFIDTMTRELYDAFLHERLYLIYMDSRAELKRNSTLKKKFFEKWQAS

B1: Cdc31 (protein, UniProt P06704 1-161)
chain: MSKNRSSLQSGPLNSELLEEQKQEIYEAFSLFDMNNDGFLDYHELKVAMKALGFELPKREILDLIDEYDSEGRHLMKYDDFYIVMGEKILKRDPLDEIKRAFQLFDDDHTGKISIKNLRRVAKELGETLTDEELRAMIEEFDLDGDGEINENEFIAICTDS
B2: Sus1 (protein, UniProt Q6WNK7 1-96)
chain: MTMDTAQLKSQIQQYLVESGNYELISNELKARLLQEGWVDKVKDLTKSEMNINESTNFTQILSTVEPKALEMVSDSTRETVLKQIREFLEEIVDTQ
B3: Sac3^723–753 sub-complex with Sus1A (complex, UniProt P46674 723-753; Q6WNK7 1-96)
chain 1: KQVITEQIANDLVKEVVNSSVISIVKREFSE
chain 2: MTMDTAQLKSQIQQYLVESGNYELISNELKARLLQEGWVDKVKDLTKSEMNINESTNFTQILSTVEPKALEMVSDSTRETVLKQIREFLEEIVDTQ
B4: Sac3^787–805 sub-complex with Cdc31 (complex, UniProt P46674 787-805; P06704 1-161)
chain 1: ELKRNSTLKKKFFEKWQAS
chain 2: MSKNRSSLQSGPLNSELLEEQKQEIYEAFSLFDMNNDGFLDYHELKVAMKALGFELPKREILDLIDEYDSEGRHLMKYDDFYIVMGEKILKRDPLDEIKRAFQLFDDDHTGKISIKNLRRVAKELGETLTDEELRAMIEEFDLDGDGEINENEFIAICTDS

What was measured:
[1] = target: T1, GST-Sac3^753–805 wild-type (WT) (S. cerevisiae); assay: pull-down; clarified lysate with co-expressed GST-Sac3^753–805 and Cdc31 mixed with clarified lysate with Sus1, Glutathione Sepharose 4B, 4°C, 1 h; wash 50 mM Tris-HCl pH 8.0, 200 mM NaCl, 1 mM DTT; SDS-PAGE and Coomassie staining
[2] = target: T2, Sac3^723–805 (wild-type) (S. cerevisiae); assay: co-purification (SDS-PAGE of the purified complexes); cells with co-expressed Sac3^723–805:Cdc31 mixed with cells with Sus1 in excess; complex purified and compared by SDS-PAGE
GST-Nup1^191–385 = target: T3, GST-Nup1^191–385 (S. cerevisiae, UniProt P20676 191-385); assay: pull-down; GST-Nup fusion (or GST) immobilised on Glutathione Sepharose 4B from clarified bacterial lysate and washed with PBS-DTT; purified Sac3^CID complex, sub-complex, mutant variant or Kap95 added at 15.4 μM; 4°C, 1 h; SDS-PAGE and Coomassie staining; both purified
T3 construct: source: E. coli BL21 (DE3) CodonPlus RIL; immobilised on Glutathione Sepharose 4B from clarified lysate; not shown: GST, N-terminal, kept

Binder | binding [1] | binding [2] | binding (GST-Nup1^191–385)
B1 | binds | binds | –
B2 | binds | binds | –
B3 | – | – | no binding (tested: 15.4 μM)
B4 | – | – | no binding (tested: 15.4 μM)
